# Measured values from the supplement of paper PMC8728848.
# The other results are listed elsewhere or left out.
# B1: Mindin (Homo sapiens), Q9BUD6 (protein)
# chain: MENPSPAAALGKALCALLLATLGAAGQPLGGESICSARALAKYSITFTGKWSQTAFPKQYPLFRPPAQWSSLLGAAHSSDYSMWRKNQYVSNGLRDFAERGEAWALMKEIEAAGEALQSVHEVFSAPAVPSGTGQTSAELEVQRRHSLVSFVVRIVPSPDWFVGVDSLDLCDGDRWREQAALDLYPYDAGTDSGFTFSSPNFATIPQDTVTEITSSSPSHPANSFYYPRLKALPPIARVTLVRLRQSPRAFIPPAPVLPSRDNEIVDSASVPETPLDCEVSLWSSWGLCGGHCGRLGTKSRTRYVRVQPANNGSPCPELEEEAECVPDNCV
# Key:
# Test in all cases: glycan array binding signal (z-score within array); higher = stronger binding
# Details in all cases: glycan notation: IUPAC condensed, linker removed
# [1] = target: Gal(b1-4)GlcNAc(b1-6)Gal(b1-4)GlcNAc(b1-6)GalNAc
# Summary of the method: (§1)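 Arrays were curated from the Consortium for Functional Glycomics database, 3228 in total, and kept only where the protein sequence was available. Binding is expressed as a within-array Z-score. This score was averaged across arrays of the same protein sequence at different concentrations or buffers and across linkers, and negative values can be read as non-binding.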
# [2] = target: Gal(b1-4)GlcNAc(b1-6)GalNAc
# Summary of the method: as §1
# [3] = target: Gal(b1-4)GlcNAc(b1-6)[Gal(b1-3)]GalNAc
# Summary of the method: as §1
# Gal3S(b1-3)GalNAc = target: Gal3S(b1-3)GalNAc
# Summary of the method: as §1
# Gal3S(b1-3)GlcNAc = target: Gal3S(b1-3)GlcNAc
# Summary of the method: as §1
# [4] = target: Gal3S(b1-3)[Fuc(a1-4)]GlcNAc
# Summary of the method: as §1
# Gal3S(b1-4)Glc = target: Gal3S(b1-4)Glc
# Summary of the method: as §1
# Gal3S(b1-4)Glc6S = target: Gal3S(b1-4)Glc6S
# Summary of the method: as §1
# Gal3S(b1-4)GlcNAc = target: Gal3S(b1-4)GlcNAc
# Summary of the method: as §1
# Gal3S(b1-4)GlcNAc6S = target: Gal3S(b1-4)GlcNAc6S
# Summary of the method: as §1
# [5] = target: Gal3S(b1-4)[Fuc(a1-3)]Glc
# Summary of the method: as §1
# Gal3S6S(b1-4)GlcNAc = target: Gal3S6S(b1-4)GlcNAc
# Summary of the method: as §1
# Gal3S6S(b1-4)GlcNAc6S = target: Gal3S6S(b1-4)GlcNAc6S
# Summary of the method: as §1
# Gal4S(b1-4)GlcNAc = target: Gal4S(b1-4)GlcNAc
# Summary of the method: as §1
# Gal4S6S(b1-4)GlcNAc = target: Gal4S6S(b1-4)GlcNAc
# Summary of the method: as §1
# Gal6S(b1-4)Glc = target: Gal6S(b1-4)Glc
# Summary of the method: as §1
# Gal6S(b1-4)Glc6S = target: Gal6S(b1-4)Glc6S
# Summary of the method: as §1
# Gal6S(b1-4)GlcNAc = target: Gal6S(b1-4)GlcNAc
# Summary of the method: as §1
# GalNAc(a1-3)Gal = target: GalNAc(a1-3)Gal
# Summary of the method: as §1
# GalNAc(a1-3)GalNAc = target: GalNAc(a1-3)GalNAc
# Summary of the method: as §1
# [6] = target: GalNAc(b1-3)Gal(a1-4)Gal(b1-4)GlcNAc
# Summary of the method: as §1
# GalNAc(b1-3)GalNAc = target: GalNAc(b1-3)GalNAc
# Summary of the method: as §1
# GalNAc(b1-4)GlcNAc = target: GalNAc(b1-4)GlcNAc
# Summary of the method: as §1
# Glc(a1-4)Glc = target: Glc(a1-4)Glc
# Summary of the method: as §1
# Glc(a1-6)Glc(a1-6)Glc = target: Glc(a1-6)Glc(a1-6)Glc
# Summary of the method: as §1
# Glc(b1-4)Glc = target: Glc(b1-4)Glc
# Summary of the method: as §1
# Glc(b1-6)Glc = target: Glc(b1-6)Glc
# Summary of the method: as §1
# GlcA(b1-3)Gal = target: GlcA(b1-3)Gal
# Summary of the method: as §1
# GlcA(b1-6)Gal = target: GlcA(b1-6)Gal
# Summary of the method: as §1
# [7] = target: GlcNAc(a1-3)Gal(b1-4)GlcNAc
# Summary of the method: as §1
binder,measurement,setting,value
B1,glycan array binding signal (z-score),[1],-0.238
same,glycan array binding signal (z-score),[2],1.34
same,glycan array binding signal (z-score),[3],1.01
same,glycan array binding signal (z-score),Gal3S(b1-3)GalNAc,-0.146
same,glycan array binding signal (z-score),Gal3S(b1-3)GlcNAc,-0.188
same,glycan array binding signal (z-score),[4],-0.209
same,glycan array binding signal (z-score),Gal3S(b1-4)Glc,0.224
same,glycan array binding signal (z-score),Gal3S(b1-4)Glc6S,-0.148
same,glycan array binding signal (z-score),Gal3S(b1-4)GlcNAc,-0.198
same,glycan array binding signal (z-score),Gal3S(b1-4)GlcNAc6S,0.031
same,glycan array binding signal (z-score),[5],-0.28
same,glycan array binding signal (z-score),Gal3S6S(b1-4)GlcNAc,-0.241
same,glycan array binding signal (z-score),Gal3S6S(b1-4)GlcNAc6S,-0.23
same,glycan array binding signal (z-score),Gal4S(b1-4)GlcNAc,-0.072
same,glycan array binding signal (z-score),Gal4S6S(b1-4)GlcNAc,0.061
same,glycan array binding signal (z-score),Gal6S(b1-4)Glc,0.355
same,glycan array binding signal (z-score),Gal6S(b1-4)Glc6S,0.464
same,glycan array binding signal (z-score),Gal6S(b1-4)GlcNAc,-0.146
same,glycan array binding signal (z-score),GalNAc(a1-3)Gal,-0.154
same,glycan array binding signal (z-score),GalNAc(a1-3)GalNAc,-0.322
same,glycan array binding signal (z-score),[6],-0.167
same,glycan array binding signal (z-score),GalNAc(b1-3)GalNAc,-0.245
same,glycan array binding signal (z-score),GalNAc(b1-4)GlcNAc,-0.065
same,glycan array binding signal (z-score),Glc(a1-4)Glc,-0.337
same,glycan array binding signal (z-score),Glc(a1-6)Glc(a1-6)Glc,-0.402
same,glycan array binding signal (z-score),Glc(b1-4)Glc,-0.387
same,glycan array binding signal (z-score),Glc(b1-6)Glc,-0.355
same,glycan array binding signal (z-score),GlcA(b1-3)Gal,-0.309
same,glycan array binding signal (z-score),GlcA(b1-6)Gal,-0.329
same,glycan array binding signal (z-score),[7],-0.347
